Source: paper PMC5268426
Results are given in words; binding and its absence hold for the method and conditions named. For part of these data: Binding seen in cells or lysates may run through a third protein. Some entries that bind do so weakly or less than the wild type. Blank lines part the entries; values can stand above or below the molecule they belong to.

Protein sequences, listed by entry. Tags and fused reporters are not part of them. Lines headed by an entry give the natural chain unless they say otherwise; changes in a name come on top.
UniProt Q16651: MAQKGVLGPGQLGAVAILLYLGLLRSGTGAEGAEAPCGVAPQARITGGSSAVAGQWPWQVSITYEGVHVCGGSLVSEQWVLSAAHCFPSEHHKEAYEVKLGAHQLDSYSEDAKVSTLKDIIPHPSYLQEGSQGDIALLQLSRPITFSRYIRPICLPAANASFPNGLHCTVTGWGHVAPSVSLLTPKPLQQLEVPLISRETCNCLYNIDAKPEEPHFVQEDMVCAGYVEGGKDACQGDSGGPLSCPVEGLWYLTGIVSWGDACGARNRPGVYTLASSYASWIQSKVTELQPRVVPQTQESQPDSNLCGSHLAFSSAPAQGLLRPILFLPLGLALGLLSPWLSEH

Tests used:
[1] = target: T1, hepatocyte growth factor activator inhibitor (HAI)-2 (human (endogenous in Caco-2, human intestine tissue, LNCaP, HaCaT, 184 A1N4)) (UniProt O43291); test: co-IP; immunodepletion-immunoblot: Caco-2 lysate (200 ul) with 15 ul mAb-Sepharose beads, 2 hours in a cold room, supernatant blotted; matriptase depletion on lysate of cells activated at pH 6.0
T1 sequence (chain, extensive N-glycan branching (species recognised by mAb DC16)): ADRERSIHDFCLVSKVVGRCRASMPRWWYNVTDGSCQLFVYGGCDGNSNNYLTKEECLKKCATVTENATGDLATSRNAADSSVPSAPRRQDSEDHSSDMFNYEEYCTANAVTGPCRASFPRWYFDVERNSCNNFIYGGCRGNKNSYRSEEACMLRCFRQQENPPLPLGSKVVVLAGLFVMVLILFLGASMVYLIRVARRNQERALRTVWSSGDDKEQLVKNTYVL

[2] = target: T1, hepatocyte growth factor activator inhibitor (HAI)-2 (human (endogenous in Caco-2, human intestine tissue, LNCaP, HaCaT, 184 A1N4)); test: co-IP; sequential immunoaffinity columns (M19-Sepharose anti-HAI-1, DC16-Sepharose anti-HAI-2, YL11-Sepharose anti-prostasin) on Caco-2 lysate; washed with PBS with 1% Triton X100, eluted with 0.1 M glycine buffer; eluates blotted for prostasin with mAb YL11
[3] = target: activated prostasin (human (endogenous in Caco-2, human intestine tissue, LNCaP, HaCaT, 184 A1N4)) (UniProt Q16651); test: co-IP; immunodepletion-immunoblot: human intestine tissue lysate with prostasin mAb YL-11-Sepharose or HAI-2 mAb DC16-Sepharose, depleted lysate blotted for HAI-2 species
[4] = target: activated prostasin (human (endogenous in Caco-2, human intestine tissue, LNCaP, HaCaT, 184 A1N4)) (UniProt Q16651); test: co-IP; immunodepletion-immunoblot: Caco-2 lysate (200 ul) with 15 ul mAb-Sepharose beads, 2 hours in a cold room, supernatant blotted; matriptase depletion on lysate of cells activated at pH 6.0
[5] = target: activated prostasin (human (endogenous in Caco-2, human intestine tissue, LNCaP, HaCaT, 184 A1N4)) (UniProt Q16651); test: immunoblot of SDS-stable protease-inhibitor complexes (non-reducing, non-boiled SDS-PAGE); lysate of frozen human intestine tissue in RIPA buffer; blots with matriptase, prostasin, HAI-1 and HAI-2 mAbs
[6] = target: T2, activated matriptase (human (endogenous in Caco-2, human intestine tissue)), Q9Y5Y6; test: co-IP; immunodepletion-immunoblot: Caco-2 lysate (200 ul) with 15 ul mAb-Sepharose beads, 2 hours in a cold room, supernatant blotted; matriptase depletion on lysate of cells activated at pH 6.0; conditions: remark: other sources report otherwise
T2 chain: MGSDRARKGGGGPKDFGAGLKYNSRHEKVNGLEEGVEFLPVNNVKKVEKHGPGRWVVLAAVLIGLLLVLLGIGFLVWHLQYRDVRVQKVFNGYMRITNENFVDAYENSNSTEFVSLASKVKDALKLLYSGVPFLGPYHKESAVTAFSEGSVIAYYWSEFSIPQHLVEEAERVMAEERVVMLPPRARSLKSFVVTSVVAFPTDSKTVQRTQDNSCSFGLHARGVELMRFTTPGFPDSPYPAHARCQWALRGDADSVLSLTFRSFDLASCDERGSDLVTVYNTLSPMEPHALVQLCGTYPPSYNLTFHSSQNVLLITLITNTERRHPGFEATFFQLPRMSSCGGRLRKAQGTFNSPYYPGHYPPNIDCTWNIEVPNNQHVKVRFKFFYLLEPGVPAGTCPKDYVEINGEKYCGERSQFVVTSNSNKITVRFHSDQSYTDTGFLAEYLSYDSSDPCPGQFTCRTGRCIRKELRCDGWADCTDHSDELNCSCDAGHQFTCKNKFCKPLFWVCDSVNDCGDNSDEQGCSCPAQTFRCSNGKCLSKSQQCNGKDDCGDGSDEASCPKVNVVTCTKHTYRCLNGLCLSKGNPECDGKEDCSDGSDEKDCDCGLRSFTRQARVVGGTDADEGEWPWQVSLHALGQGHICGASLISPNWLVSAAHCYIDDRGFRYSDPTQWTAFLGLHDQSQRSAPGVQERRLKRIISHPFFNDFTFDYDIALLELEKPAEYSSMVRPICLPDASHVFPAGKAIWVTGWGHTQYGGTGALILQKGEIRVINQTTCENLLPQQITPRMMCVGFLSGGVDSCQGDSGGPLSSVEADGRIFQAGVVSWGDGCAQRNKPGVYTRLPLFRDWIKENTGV

[7] = target: T2, activated matriptase (human (endogenous …)); test: immunoblot of SDS-stable protease-inhibitor complexes (non-reducing, non-boiled SDS-PAGE); Caco-2 lysates; cells in PBS or in phosphate buffer pH 6.0 for 20 min to induce matriptase zymogen activation; samples without reducing agent, room temperature 5 min, 7.5% SDS-PAGE; conditions: remark: other sources report otherwise
[8] = target: activated matriptase (human (endogenous in Caco-2, human intestine tissue)) (UniProt Q9Y5Y6); test: immunoblot of SDS-stable protease-inhibitor complexes (non-reducing, non-boiled SDS-PAGE); lysate of frozen human intestine tissue in RIPA buffer; blots with matriptase, prostasin, HAI-1 and HAI-2 mAbs
[9] = target: activated matriptase (human (endogenous in Caco-2, human intestine tissue)) (UniProt Q9Y5Y6); test: immunoblot of SDS-stable protease-inhibitor complexes (non-reducing, non-boiled SDS-PAGE); Caco-2 lysates; cells in PBS or in phosphate buffer pH 6.0 for 20 min to induce matriptase zymogen activation; samples without reducing agent, room temperature 5 min, 7.5% SDS-PAGE

B2: hepatocyte growth factor activator inhibitor (HAI)-2, O43291 28-252 (protein)
chain: T1 sequence (chain, extensive N-glycan branching (species recognised by mAb DC16))
modifications: here or on the partner: extensive N-glycan branching (species recognised by mAb DC16)
binding [6]: no binding | binding [7]: no binding

B3: hepatocyte growth factor activator inhibitor (HAI)-1 (protein, UniProt O43278 36-529)
chain: GPPPAPPGLPAGADCLNSFTAGVPGFVLDTNASVSNGATFLESPTVRRGWDCVRACCTTQNCNLALVELQPDRGEDAIAACFLINCLYEQNFVCKFAPREGFINYLTREVYRSYRQLRTQGFGGSGIPKAWAGIDLKVQPQEPLVLKDVENTDWRLLRGDTDVRVERKDPNQVELWGLKEGTYLFQLTVTSSDHPEDTANVTVTVLSTKQTEDYCLASNKVGRCRGSFPRWYYDPTEQICKSFVYGGCLGNKNNYLREEECILACRGVQGGPLRGSSGAQATFPQGPSMERRHPVCSGTCQPTQFRCSNGCCIDSFLECDDTPNCPDASDEAACEKYTSGFDELQRIHFPSDKGHCVDLPDTGLCKESIPRWYYNPFSEHCARFTYGGCYGNKNNFEEEQQCLESCRGISKKDVFGLRREIPIPSTGSVEMAVAVFLVICIVVVVAILGYCFFKNQRKDFHGHHHHPPPTPASSTVSTTEDTEHLVYNHTTRPL
binding [8]: binds | binding [9]: binds

Other lines, results leading:

binding [1]: binds | binding [2]: binds
Molecule: activated prostasin (from UniProt Q16651 33-44; Q16651 45-322) (enzyme)

binding [3]: binds | binding [4]: binds | binding [5]: binds
B1: hepatocyte growth factor activator inhibitor (HAI)-2 (protein, UniProt O43291 28-252)
chain: T1 sequence (chain, extensive N-glycan branching (species recognised by mAb DC16))
modifications: extensive N-glycan branching (species recognised by mAb DC16)
